About 340 (0.77%) of roughly 44,000 compounds were called active. Roughly 5% stayed inconclusive and do not appear here. The call rests on the fitted dose curve; in most records, active means well fitted inhibition curve with a large enough effect; inconclusive means small, poorly fitted or top-dose-only effect; inactive means flat fitted curve, though single readings scatter. The list shows a part of the results.
assay: Acumen qHTS Assay for Inhibitors of the mTORC1 Signaling Pathway in MEF (Tsc2-/-, p53-/-) Cells: Sytravon; conditions: phospho-rpS6 immunofluorescence/PI, 24 h; series mostly up to 38.3 µM; activity change, negative = inhibition: at the top concentration;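 further: plate controls were DMSO for no effect and rapamycin for full effect; nearly all actives have a fitted effect of over 50% in size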
Outline: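 Plate MEFs (Tsc2-/-, p53-/-, empty vector) in DMEM/10% FBS; after 24 h add compound, incubate 24 h at 37 degree Celsius; fix in PFA/TX-100, block, stain phospho-rpS6 and 10 uM PI; scan at 488 nm; report % positive cells.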

Activity change, negative = inhibition, inactive:
CCOc1ccc(CCNC(=O)c2sc3ncccc3c2-n2cccc2)cc1OCC 0%
COC(=O)c1ccc(-c2nc3cc(NC(C)=O)ccc3o2)cc1 -5.89%
COc1ccc(-n2c(=O)c3ccccc3n(Cc3cccc(C)c3)c2=O)cc1 -12%
CCCN(c1ccc(C(C)C)cc1)S(=O)(=O)c1ccc2c(c1)oc(=O)n2CC(=O)OCC -14.1%
COc1cccc(Cn2c(CNS(=O)(=O)c3ccc(C(C)(C)C)cc3)nc3cccnc32)c1 -3.45%
COc1ccccc1N1CCN(C(=O)c2cc(S(=O)(=O)N3CCC(C)CC3)cn2C)CC1 -11.9%
COc1ccc(-c2nc(CNC(=O)Nc3ccccc3)c(C)o2)cc1 7.87%
CCOC(=O)Cn1c(=O)n(CC2CCCO2)c2nc(-c3ccc(C(C)C)cc3)nc(C(N)=O)c21 (stereo unspecified) -2.59%
O=C(Nc1nnc(S(=O)(=O)Nc2ccccc2)s1)C1CCCCC1 4.77%
CCCSc1nnc2[nH]c(=O)cc(C)n12 -4.11%
COc1cc2c(-c3cc(Br)ccc3O)nc3c(c(C)nn3-c3ccccc3)c2cc1OC -4.63%
Cc1ccccc1N(C)S(=O)(=O)c1nnc(NC(=O)C(C)C)s1 -1.63%
CCOC(=O)c1ccc(N2C(=O)c3n[nH]c(C)c3C2c2ccc(OCC)cc2)cc1 (stereo unspecified) 0.744%
Cc1ccccc1NC(=O)Cn1c(=O)n(Cc2ccccc2)c(=O)c2sc3ccccc3c21 -4.87%
CCOc1ccc(C(=O)NCC(c2ccco2)S(=O)(=O)c2cccs2)cc1 (stereo unspecified) 1.16%
COc1ccc2c(C)c(CCC(=O)NCc3ccc(Cl)cc3)c(=O)oc2c1C -11.7%
Cc1nn(-c2ccc(N3CCCC3)nn2)c(C)c1CCC(=O)N1CCN(c2ccccc2)CC1 -3.96%
Cc1ccccc1-c1nn2c(=O)cc(CN3CCN(S(=O)(=O)c4ccc(Cl)cc4)CC3)nc2s1 -0.989%
COC(=O)c1ccc(C(=O)OC)c(NC(=O)c2cnn3c(C(F)F)cc(-c4ccccc4)nc23)c1 -0.744%
COc1ccc(NC(=O)Cn2c(=O)n(-c3cccc(C(F)(F)F)c3)c(=O)c3sccc32)cc1 -14.3%
O=C(NCC(c1ccc(Cl)cc1)N1CCCCC1)c1ccccc1F (stereo unspecified) -8.46%
CCOc1ccc(OCC)c(NC(=O)CCc2nc3cccnc3n2-c2ccccc2)c1 -9.67%
CCC1CN(C(=O)Nc2ccc(Br)cc2F)c2ccccc2S1 (stereo unspecified) -1.64%
Cc1ccccc1NC(=O)[C@H](CSCc1ccccc1)N1Cc2ccccc2C1=O -5.43%
CCc1ccc(S(=O)(=O)Nc2ccc(-c3ccc(N4CCCC4)nn3)cc2)cc1 7.73%
COC(=O)C(NC(=O)CCc1c(C)nc2c(c(C)nn2-c2ccccc2)c1C)C(C)C (stereo unspecified) 0.985%
COc1cc(OC)cc(C(=O)Nc2ccc3nc(Nc4cccc(C(F)(F)F)c4)cc(C)c3c2)c1 -16.3%
C#CCn1c(C2CC(=O)N(c3ccc(OCC)cc3)C2)nc2ccccc21 (stereo unspecified) 3.55%
CCN(CC)C(=O)C1CCN(c2nnc(C)c3c(C)n(-c4ccc(Cl)cc4)nc23)CC1 -4.54%
O=C(NCc1ccc(F)cc1)c1cnc(N2CCCCC2)c2ccccc12 0.4%
CCCOc1ccc(CNC(=O)C2CCCN(c3nc4c(C)cc(C)cc4s3)C2)cc1 (stereo unspecified) -5.6%
Cc1cccc(NC(=O)c2ccc(F)c(S(=O)(=O)N3CCC4(CC3)OCCO4)c2)c1 0.295%
COc1ccc(NC(=O)Cn2c(=O)n(CCCC(=O)NCCc3ccc(C)cc3)c(=O)c3ccccc32)cc1Cl -0.0143%
Cc1ccc(CCNC(=O)c2ccc3c(c2)N(Cc2ccccc2)C(=O)c2ccccc2S3=O)cc1 (stereo unspecified) 0.24%
COc1ccc(N2CCN(c3ncnc4onc(-c5ccc(F)cc5)c34)CC2)cc1 -10.9%
COc1cc(OC)c(NC(=O)N2CCc3cc(OC)c(OC)cc3C2CC(=O)O)cc1Cl (stereo unspecified) 28.7%
CC(C)c1ccc(C2c3c(-c4ccccc4O)n[nH]c3C(=O)N2Cc2ccncc2)cc1 (stereo unspecified) -10.7%
CCCCOC(=O)CSc1nnc(-c2ccc(C)cc2)o1 -10.8%
COc1ccc(C(=O)Nc2nnc(C)s2)cc1 -4.72%
Cc1ccc(Cl)cc1NC(c1ccc(F)cc1)c1nnc(-c2ccccc2)o1 (stereo unspecified) -23.8%
Cc1ccc(NC(=O)C(CC(C)C)NS(=O)(=O)c2ccc3c(c2)oc(=O)n3C)c(C)c1 (stereo unspecified) -6.54%
Cc1ccc2onc(CNC(=O)Nc3cc(F)ccc3F)c2c1 -15.8%
Cc1ccc2c(c1)Cc1c(nc(-c3ccc(Cl)cc3)nc1SCC(=O)N1CCCCC1)O2 -3.39%
Cc1ccn2c(Nc3ccc4c(c3)OCCO4)c(-c3cccs3)nc2c1 -13.5%
O=C(CSc1nnc(-c2ccc(Cl)cc2)o1)Nc1ccc(F)cc1 -3.7%
COc1cccc2c1Oc1ncccc1N(c1ccc(C(=O)NCc3ccccc3Cl)s1)C2 7.85%
CC(=O)N1CCc2c(sc3c2c(=O)n(CCc2ccccc2)c(=O)n3CC(=O)Nc2ccc(C)c(F)c2)C1 2.51%
CCc1ccccc1NC(=O)Cn1c(=O)n(Cc2ccc3c(c2)OCO3)c(=O)c2ccc(C(=O)NC3CCCCC3)cc21 0.418%
Cc1ccccc1-c1nc(CS(=O)(=O)CC(=O)NCC(C)c2ccccc2)c(C)o1 (stereo unspecified) -0.127%
O=C(COc1ccccc1Cl)NCC1(N2CCOCC2)CCCCC1 -1.49%
COc1cc(OC)c(NC(=O)C2CCCN(c3ncnc4c3nc3n4CCCCC3)C2)cc1Cl (stereo unspecified) -1.97%
CCc1ccc(OCC(=O)Nc2cc3oc4ccccc4c3cc2OC)cc1 1.15%
CCN1CCN(CCCNC(=O)c2cc3c(=O)n(C)c4ccccc4c3s2)CC1 -12%
O=C(NCCc1ccccc1)c1cnc2sc(N3CCCC3)nn2c1=O -10.4%
Cc1cccc(OCCn2c(-c3ccc(Cl)cc3)nc3ccccc3c2=O)c1 -23.6%
CCCc1nn2c(=O)cc(COC(=O)c3cccc(NC(=O)COc4ccccc4C)c3)nc2s1 0%
COC(=O)C1=C(CS(=O)(=O)c2cc(Cl)ccc2OC)NC(=O)NC1c1ccccc1 (stereo unspecified) -0.459%
CCCCOc1ccc(C(=O)N2CCN(CCc3ccncc3)CC2)cc1 2.76%
CC(=O)c1c(C)nc2nc(-c3ccccc3)nn2c1C 3.63%
COCCCNC(=O)c1oc2c(c1C)-c1nn(Cc3cccc(Cl)c3)cc1CC2 7.12%
COc1ccccc1N1CCN(C(=O)c2nn(-c3ccc(C)cc3)c(=O)n(C)c2=O)CC1 4.28%
CCOC(=O)c1ccc(Nc2c(-c3ccc(O)c(OC)c3)nc3nc[nH]n23)cc1 1.48%
Cc1cc(F)ccc1S(=O)(=O)NCC(c1ccco1)S(=O)(=O)c1cccs1 (stereo unspecified) 0.699%
CC1Cc2cc(S(=O)(=O)N3CCN(c4ccccc4F)CC3)ccc2N1C(=O)C1CCC1 (stereo unspecified) -16.4%
Cc1cc2nnc(SCC(=O)Nc3ccc(F)c(Cl)c3)n2c2ccccc12 1.27%
COc1cc(NS(=O)(=O)c2ccc3c(c2)CCN3S(C)(=O)=O)cc(OC)c1 -1.92%
CCc1nn2c(=O)cc(COC(=O)c3cccc(NC(=O)c4ccccc4Cl)c3)nc2s1 0%
CCc1ccc2c(c1)c(=O)c(S(=O)(=O)c1ccc(F)cc1)cn2CC(=O)Nc1ccc(C)cc1C -15.5%
Cc1ccc(CNC(=O)C2CCCN(S(=O)(=O)c3cccc4nsnc34)C2)cc1 (stereo unspecified) -0.372%
CCCn1ccc2c(OCC(=O)NCc3ccc(C)cc3)cccc2c1=O 0.41%
Cc1cccc(NC(=O)c2ccc(N(Cc3ccccc3)S(C)(=O)=O)cc2)c1 -8.65%
CCN(CCCNC(=O)c1cc2c(=O)n(C)c3ccccc3c2s1)Cc1ccccc1 -8.34%
Cc1ccc2c(c1)C(c1ccc(F)cc1)N(C(=O)COc1ccc(Cl)cc1Cl)CC(=O)N2 (stereo unspecified) -2.17%
COc1ccc(CNC(=O)c2cnc3sc(N4CCCC4)nn3c2=O)cc1OC -4%
CCOC(=O)c1cccc(NC(=O)CN2C(=O)c3ccccc3Sc3ncccc32)c1 -14%
CC1CCC(NC(=O)c2ccc3c(c2)N(Cc2ccccc2)C(=O)c2ccccc2S3=O)CC1 (stereo unspecified) -2.82%
COc1cc(-c2nnn(CC(=O)Nc3ccc(OC(F)(F)F)cc3)n2)cc(OC)c1OC 2.1%
Cc1ccc(C(=O)NCc2ccc(N(C)C)cc2)cc1NC(=O)c1nsc2ccccc12 0%
COc1cc(NC(=O)CC2C(=O)N(c3ccc(Cl)cc3)C(=O)N2Cc2cccs2)cc(OC)c1 (stereo unspecified) -4.53%
CN1C(C(=O)Nc2ccc(F)cc2F)=CC(c2ccco2)=NS1(=O)=O 1.64%
O=C(CSCc1ccccc1Cl)N1CCN(c2ccc(F)cc2)CC1 2.02%
Cc1nnc(NCc2ccccc2)c2c1nnn2Cc1ccccc1Cl 2.64%
Cc1cccn2c(=O)c(C(=O)NCCCN3CCCCC3C)c(O)nc12 (stereo unspecified) -0.0398%
Cc1cc2oc(C(=O)Nc3c(C(=O)Nc4ccccc4)oc4ccccc34)cc(=O)c2cc1C -13.4%
Cc1cccc(C)c1NC(=O)c1oc2ccc3c(c2c1C)C(=O)CC(C)(C)O3 -11.9%
COc1ccccc1CNC(=O)C1CCCN(S(=O)(=O)c2ccc3c(c2)CCCN3C(C)=O)C1 (stereo unspecified) -18.1%
O=C(Cn1ncc2c1-c1ccccc1OC2)N1CCN(c2ccccc2F)CC1 2.85%
COc1ccc(N2CCN(C(=O)c3cn(CC(C)C)c(=O)c4c3c3ccccc3n4C)CC2)cc1 -0.583%
CCc1ccc(-c2nn(CC(=O)Nc3ccccc3)c3c2cnc2ccc(F)cc23)cc1 -5.83%
CC(C)(C)C1CCc2c(sc(NC(=O)Cn3nnc(-c4ccccc4F)n3)c2C#N)C1 (stereo unspecified) 0.644%
O=C(Cn1c(=O)c2cccn2c2ccccc21)Nc1cc(F)ccc1F -0.946%
CCOC(=O)c1cc(-c2ccccc2)n(-c2cccc(C(=O)Nc3ccc(OC)cc3)c2)c1C -0.786%
COc1ccc(-c2[nH]ncc2C(=O)NCc2ccccc2C)cc1 0.117%
Cc1onc(-c2ccccc2Cl)c1C(=O)Oc1cc(F)cc(F)c1 4.38%
COC(=O)c1ccccc1NC(=O)Cn1c(=O)n(-c2cccc(OC)c2)c(=O)c2c(C)c(C(=O)N(C)C)sc21 1.64%
CCC(C(=O)NCCc1ccc(SC)cc1)n1nc(C)c2sc3ccccc3c2c1=O (stereo unspecified) 2.23%

— PubChem BioAssay AID493208 (National Center for Advancing Translational Sciences (NCATS), 2011)
